Type in all cases: toxicity, cell-based
One data set deals with U2OS. Description: Multiplex assay against U2OS. Particulars: human, number of replicates 2. The essentials:
(§1)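 Live cells carried four stains from seeding: Hoechst33342, BioTracker Green Microtubule Cytoskeleton Dye, MitoTracker Red and Annexin V Alexa Fluor 680. They were imaged on a CQ1 microscope at 37°C and 5% CO2 after compound addition. Using CellPathfinder machine-learning gating, cells were split into Hoechst high-intensity objects or normal cells, normal cells into healthy, pyknosed or fragmented nuclei, and pyknosed cells into mitotic or apoptotic; tubulin, mitochondrial-mass and membrane-permeability phenotypes are per cents of healthy-nucleus cells.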

The next data set has as its system HEK-293T. Description: Multiplex assay against HEK293T. Particulars: human, number of replicates 2; for Population Apoptotic (%): 48 h. The method in brief: as §1
The next data set has as its system Fibroblast. As to the kind of experiment: Multiplex assay against human fibroblast. Particulars: number of replicates 2. The method in brief:
as §1

[1] abbreviates: 12 h, 1 µM, compound concentration 1 uM.
Setting [2] is: 12 h, 10 µM, compound concentration 10 uM.
The mark [3] stands for this setting: 24 h, 1 µM, compound concentration 1 uM.
Setting [4] is: 24 h, 10 µM, compound concentration 10 uM.
[5] abbreviates: 48 h, 1 µM, compound concentration 1 uM.
Where [6] appears, read: 48 h, 10 µM, compound concentration 10 uM.
Setting [7] is: 1 µM, compound concentration 1 uM.

SMILES strings stand for the structures. For part of its entries the source gives two or more results. The other results are left out here. There may be further records. Results that share an entry are repeated measurements in other runs, samples, wells, individuals or studies.

With `COCCNC1CCC(Nc2cc(-c3csc(NCC4(C#N)CCOCC4)n3)c(Cl)cn2)CC1` (stereo not drawn), the “Population Membrane Permeable-Phenotype (%)” value is 28% and 7% with U2OS (setting [1]); 29% and 0% in the data set with U2OS (setting [2]). In addition, the “Population Mitotic Cells (%)” value in the data set on U2OS (setting [1]) was 55% and 12%; in the data set with U2OS (setting [3]) it was 40% and 5%; with U2OS (setting [5]) it was 1% and 21%; in the data set on HEK-293T (setting [4]), 8% and 32%. Moreover, the “Total Cell Count” value is 41 and 204 with U2OS (setting [1]); 181 and 51 with U2OS (setting [2]); 36 and 213 in the data set on U2OS (setting [3]); 45 and 165 in the data set on U2OS (setting [4]); 188 and 31 with U2OS (setting [5]); 44 and 160 in the data set with U2OS (setting [6]). Besides, the “Population Healthy Nuclei (%)” value with U2OS (setting [2]) is 48% and 12%; in the data set with U2OS (setting [4]) it was 6% and 33%.
`CNC(=O)c1c(F)cccc1Nc1nc(Nc2cc3c(cc2OC)CCN3C(=O)CN(C)C)nc2[nH]ccc12`: the “Population Tubulin-Different-Phenotype (%)” value in the data set on Fibroblast (setting [3]) was 4% and 17%. Besides, in the data set with U2OS (setting [1]), the “Population Fragmented Nuclei (%)” value is 25% and 3%; the “Total Cell Count” value was 51 and 173. Besides, in the data set on U2OS (setting [2]), the “Population Fragmented Nuclei (%)” value was 64% and 14%; the “Population Membrane Permeable-Phenotype (%)” value is 2% and 25%; the “Population Mitochondria Different-Phenotype (%)” value is 2% and 32%; the “Population Pyknosed Nuclei (%)” value was 1% and 50%. In the data set with U2OS (setting [3]), the “Population Fragmented Nuclei (%)” value was 18% and 3%; the “Total Cell Count” value is 59 and 237. In addition, in the data set with U2OS (setting [4]), the “Population Fragmented Nuclei (%)” value is 64% and 12%; the “Population Membrane Permeable-Phenotype (%)” value is 2% and 35%; the “Population Mitochondria Different-Phenotype (%)” value was 3% and 54%; the “Population Pyknosed Nuclei (%)” value was 2% and 63%. For the same compound, the “Total Cell Count” value with U2OS (setting [4]) was 800 and 222. Also, in the data set on U2OS (setting [5]), the “Population Fragmented Nuclei (%)” value is 14% and 2%; the “Total Cell Count” value was 77 and 338. In the data set with U2OS (setting [6]), the “Population Fragmented Nuclei (%)” value is 64% and 17%; the “Population Healthy Nuclei (%)” value is 32% and 10%; the “Population Membrane Permeable-Phenotype (%)” value was 2% and 47%; the “Population Mitochondria Different-Phenotype (%)” value was 1% and 47%. In addition, in the data set with U2OS (setting [6]), the “Population Pyknosed Nuclei (%)” value was 2% and 71%; the “Total Cell Count” value is 809 and 193. Besides, the “Population Mitotic Cells (%)” value in the data set on HEK-293T (setting [3]) was 60% and 16%.
On to `CCc1cnn2c(NCc3ccc[n+]([O-])c3)cc(N3CCCCC3CCO)nc12` (stereo not drawn), for which the “Population Fragmented Nuclei (%)” value in the data set on U2OS (setting [1]) was 42% and 10%; in the data set with U2OS (setting [3]) it was 48% and 15%; in the data set on U2OS (setting [5]), 46% and 9%. The “Population Mitotic Cells (%)” value is 41% and 8% in the data set on U2OS (setting [1]); 4% and 17% with U2OS (setting [6]); 47% and 13% with HEK-293T (setting [2]). Besides, the “Total Cell Count” value was 35 and 124 with U2OS (setting [1]); 45 and 232 in the data set with U2OS (setting [2]); 25 and 128 with U2OS (setting [3]); 49 and 219 in the data set on U2OS (setting [4]); 32 and 120 with U2OS (setting [5]); 209 and 52 in the data set on U2OS (setting [6]). For the same compound, the “Population Membrane Permeable-Phenotype (%)” value in the data set on U2OS (setting [2]) is 38% and 4%; in the data set on U2OS (setting [6]), 56% and 16%. Moreover, the “Population Mitochondria Different-Phenotype (%)” value in the data set with U2OS (setting [3]) is 20% and 5%.
As to `O=C(NCc1ccc(F)cc1)N1CCN2C(=O)OC(c3ccccc3)(c3ccccc3)C2C1` (stereo not drawn), the “Population Mitotic Cells (%)” value in the data set with Fibroblast (setting [6]) was 54% and 16%; with U2OS (setting [5]), 62% and 10%. For the same compound, the “Total Cell Count” value is 27 and 302 in the data set with U2OS (setting [1]); 38 and 256 in the data set with U2OS (setting [2]); 425 and 35 in the data set with U2OS (setting [3]); 37 and 324 in the data set with U2OS (setting [4]); 786 and 54 with U2OS (setting [5]); 56 and 465 in the data set with U2OS (setting [6]). The “Population Pyknosed Nuclei (%)” value in the data set on U2OS (setting [3]) was 8% and 32%. Also, the “Population Fragmented Nuclei (%)” value in the data set on U2OS (setting [5]) is 2% and 18%. In addition, the “Population Apoptotic (%)” value with HEK-293T (setting [7]) was 8% and 32%.
`CCCCOc1c(C(=O)c2c(F)cc(C)cc2F)c[nH]c2nncc1-2`: the “Population Membrane Permeable-Phenotype (%)” value with Fibroblast (setting [6]) was 18% and 3%. The “Population Fragmented Nuclei (%)” value was 27% and 3% with U2OS (setting [1]); 22% and 6% in the data set with U2OS (setting [4]); 25% and 7% in the data set on U2OS (setting [6]). Moreover, the “Total Cell Count” value in the data set on U2OS (setting [1]) was 55 and 207; with U2OS (setting [3]), 40 and 261; in the data set with U2OS (setting [5]) it was 69 and 434. The “Population Mitotic Cells (%)” value in the data set on U2OS (setting [2]) is 57% and 16%. In addition, the “Population Pyknosed Nuclei (%)” value in the data set with U2OS (setting [2]) is 51% and 12%; in the data set on U2OS (setting [3]) it was 37% and 12%; in the data set on U2OS (setting [4]) it was 51% and 11%; with U2OS (setting [5]) it was 23% and 6%; in the data set on U2OS (setting [6]), 60% and 15%. For the same compound, the “Population Healthy Nuclei (%)” value was 26% and 81% with U2OS (setting [4]); 14% and 76% in the data set on U2OS (setting [6]). Also, the “Population Apoptotic (%)” value with HEK-293T (setting [7]) was 11% and 34%.
As to `CC(C)S(=O)(=O)c1ccccc1Nc1nc(N[C@@H]2CCCN(CCCCCCCNC(=O)COc3cccc4c3C(=O)N(C3CCC(=O)N(C)C3=O)C4=O)C2)ncc1Cl` (stereo partly drawn), the “Population Fragmented Nuclei (%)” value is 42% and 4% in the data set with U2OS (setting [1]); 29% and 5% in the data set with U2OS (setting [2]). In addition, the “Population Membrane Permeable-Phenotype (%)” value with U2OS (setting [1]) was 17% and 5%. For the same compound, the “Total Cell Count” value in the data set with U2OS (setting [2]) was 31 and 236; in the data set with U2OS (setting [4]), 25 and 254; with U2OS (setting [5]), 57 and 212; in the data set on U2OS (setting [6]), 23 and 234. Moreover, the “Population Healthy Nuclei (%)” value in the data set on U2OS (setting [4]) is 8% and 30%. The “Population Mitotic Cells (%)” value in the data set on HEK-293T (setting [3]) is 51% and 16%.
With `CCCN(CCc1cccs1)[C@H]1CCc2c(O)cccc2C1` [ROTIGOTINE], the “Population Apoptotic (%)” value is 50% and 13% with Fibroblast (setting [2]); 83% and 20% in the data set with Fibroblast (setting [4]); 16% and 4% with HEK-293T (10 µM, compound concentration 10 uM). The “Population Mitotic Cells (%)” value with Fibroblast (setting [4]) is 16% and 80%; with U2OS (setting [5]), 64% and 16%. Moreover, in the data set with U2OS (setting [1]), the “Population Membrane Permeable-Phenotype (%)” value is 1% and 13%. For the same compound, the “Population Fragmented Nuclei (%)” value in the data set on U2OS (setting [2]) was 3% and 23%; in the data set with U2OS (setting [4]) it was 3% and 14%; in the data set with U2OS (setting [5]), 2% and 14%. Also, in the data set on U2OS (setting [2]), the “Population Tubulin-Different-Phenotype (%)” value is 57% and 17%.
In the case of `CC1(C)C(=O)N([C@H]2CCc3c(O)cccc32)c2nc(Nc3cccc(CN4CCCC4)c3)ncc21`, the “Population Fragmented Nuclei (%)” value with U2OS (setting [1]) is 51% and 7%; in the data set with U2OS (setting [2]) it was 32% and 8%; in the data set with U2OS (setting [3]) it was 43% and 11%; in the data set on U2OS (setting [4]), 31% and 8%; with U2OS (setting [5]) it was 50% and 13%; with U2OS (setting [6]), 6% and 55%. Also, the “Total Cell Count” value in the data set with U2OS (setting [1]) was 35 and 190; with U2OS (setting [2]) it was 28 and 190; with U2OS (setting [3]), 32 and 201; in the data set with U2OS (setting [4]), 29 and 180; in the data set with U2OS (setting [5]), 33 and 194; with U2OS (setting [6]), 179 and 39. The “Population Healthy Nuclei (%)” value in the data set on U2OS (setting [5]) was 12% and 38%. In addition, the “Population Mitotic Cells (%)” value is 2% and 18% with U2OS (setting [6]); 11% and 66% in the data set with HEK-293T (setting [3]).

The values are drawn from ChEMBL document CHEMBL5303300, “EUbOPEN Chemogenomics Library - Multiplex” (2023).
